Measurements reported in the supplement of paper PMC4604168 (melanoma cell lines).
The list shows a part of the results. Most values come without repeats; read them as rough.

Experiments:
Test in all cases: cell count relative to DMSO control; melanoma cells; higher = more viable cells
Settings in all cases: library dose: low library concentration; 72 h
[1] = system: MZ2-MEL
[2] = system: MeWo
[3] = system: RPMI7951
[4] = system: RVH-421
[5] = system: SkMel28
[6] = system: SkMel2
[7] = system: SkMel30
[8] = system: UACC62
[9] = system: SkMel5
[10] = system: UACC257
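Note: cell number obtained by counting DAPI-stained nuclei in high-throughput microscope images with image analysis software, screen run in 1,536-well plates.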

| SMILES | cell count [1] | cell count [2] | cell count [3] | cell count [4] | cell count [5] | cell count [6] | cell count [7] | cell count [8] | cell count [9] | cell count [10] |
| --- | --- | --- | --- | --- | --- | --- | --- | --- | --- | --- |
| O=C(O)c1ccc2c(c1)nc(Nc1cccc(Cl)c1)c1ccncc12 + C=C(c1ccc(C(=O)O)cc1)c1cc2c(cc1C)C(C)(C)CCC2(C)C [Bexarotene] (first compound 0.4 µM, partner dose 2 µM) | 90.6% | 88.2% | 82.2% | 81.8% | 67.4% | 94.3% | 99.5% | 94.6% |  |  |
| Cc1cc(N2CCOCC2)cc2[nH]c(-c3c(NC[C@@H](O)c4cccc(Cl)c4)cc[nH]c3=O)nc12 + COc1cc2c(Oc3ccc4[nH]c(C)cc4c3F)ncnc2cc1OCCCN1CCCC1 [cediranib] (first compound 0.2 µM, partner dose 0.4 µM) | 92.2% | 94.7% | 83% | 95.2% | 99% | 91.4% | 89.7% | 78.8% | 85.7% | 85.6% |
| O=C(Nc1cc(C(F)(F)F)cc(C(F)(F)F)c1)c1cc(Cl)ccc1O + COc1ccc(COc2ccc(Cc3cnc(N)nc3N)cc2OC)cc1 [GW2580] (first compound 0.016 µM, partner dose 1 µM) | 92.8% | 115% | 92.9% | 98.3% | 93.9% | 110% | 104% | 88.3% | 78.8% | 98.9% |
| Cc1cc(N2CCOCC2)cc2[nH]c(-c3c(NC[C@@H](O)c4cccc(Cl)c4)cc[nH]c3=O)nc12 + C[C@@H]1CCN(C(=O)CC#N)C[C@@H]1N(C)c1ncnc2[nH]ccc12 [CP690550] (first compound 0.2 µM, partner dose 1 µM) | 92% | 80.5% | 104% | 87.4% | 107% | 87.9% | 92.4% | 107% | 93.8% | 84.9% |
| O=C(O)[C@@H]1[O][Sb](=[O])([O][Sb]2(=[O])[O][C@H]([C@H](O)CO)[C@H](O)[C@H](C(=O)O)[O]2)[O][C@H]([C@H](O)CO)[C@@H]1O (stereo partly specified) [stibogluconate] + COc1ccc(COc2ccc(Cc3cnc(N)nc3N)cc2OC)cc1 [GW2580] (first compound 2 µM, partner dose 1 µM) | 101% | 91.9% | 112% | 81.8% | 96% | 101% | 115% | 85.9% | 106% | 80.6% |
| O=C(O)[C@@H]1[O][Sb](=[O])([O][Sb]2(=[O])[O][C@H]([C@H](O)CO)[C@H](O)[C@H](C(=O)O)[O]2)[O][C@H]([C@H](O)CO)[C@@H]1O (stereo partly specified) [stibogluconate] + C=CCNC1=C2C[C@@H](C)C[C@H](OC)[C@H](O)[C@@H](C)/C=C(\C)[C@H](OC(N)=O)[C@@H](OC)/C=C\C=C(/C)C(=O)NC(=CC1=O)C2=O [Tanespimycin] (first compound 2 µM, partner dose 0.002 µM) | 111% | 106% | 127% | 150% | 101% | 115% | 122% | 113% |  |  |
| O=C(O)c1ccc2c(c1)nc(Nc1cccc(Cl)c1)c1ccncc12 + CCCCCCCCCCCC1=C(O)C(=O)C=C(O)C1=O [Embelin] (first compound 0.4 µM, partner dose 1.2 µM) | 91.8% | 86.1% | 93.1% | 109% | 119% | 94.6% | 85.2% | 106% | 97.6% | 104% |
| O=C(Nc1cc(C(F)(F)F)cc(C(F)(F)F)c1)c1cc(Cl)ccc1O + OCCn1cc(-c2cnc3nnn(Cc4ccc5ncccc5c4)c3n2)cn1 [PF04217903] (first compound 0.016 µM, partner dose 1 µM) | 101% | 109% | 104% | 94.2% | 90.8% | 89.7% | 115% | 90.9% | 91.2% | 98.3% |
| O=C(O)c1ccc2c(c1)nc(Nc1cccc(Cl)c1)c1ccncc12 + N#Cc1c(O)c2c(-c3ccc(-c4ccccc4O)cc3)csc2[nH]c1=O [A769662] (first compound 0.4 µM, partner dose 2 µM) | 93.2% | 96.5% | 99% | 90.2% | 90.4% | 98.3% | 88.1% | 113% | 99.3% | 91.7% |
| Cn1nnc2c(C(N)=O)ncn2c1=O [temozolomide] + CN(C)S(=O)(=O)c1ccc2c(c1)/C(=C/c1cc3c([nH]1)CCCC3)C(=O)N2 [SU6656] (first compound 2 µM, partner dose 0.4 µM) | 98.4% | 110% | 109% | 109% | 80.1% | 102% | 85% | 57.9% | 86.6% | 87.9% |
| O=C(O)c1ccc2c(c1)nc(Nc1cccc(Cl)c1)c1ccncc12 + CCc1ccc(CCOc2ccc(CC3SC(=O)NC3=O)cc2)nc1 [pioglitazone] (first compound 0.4 µM, partner dose 2 µM) | 102% | 104% | 105% | 99.2% | 93.7% | 97.9% | 91.1% | 110% | 97.3% | 103% |
| O=C(O)c1ccc2c(c1)nc(Nc1cccc(Cl)c1)c1ccncc12 + Cn1cncc1[C@@](N)(c1ccc(Cl)cc1)c1ccc2c(c1)c(-c1cccc(Cl)c1)cc(=O)n2C [tipifarnib] (first compound 0.4 µM, partner dose 0.01 µM) | 101% | 93.1% | 94.5% | 94% | 91.1% | 85.9% | 94.8% | 73.6% | 117% | 90.3% |
| O=C(O)[C@@H]1[O][Sb](=[O])([O][Sb]2(=[O])[O][C@H]([C@H](O)CO)[C@H](O)[C@H](C(=O)O)[O]2)[O][C@H]([C@H](O)CO)[C@@H]1O (stereo partly specified) [stibogluconate] + Cn1c(Nc2ccc(C(F)(F)F)cc2)nc2cc(Oc3ccnc(-c4ncc(C(F)(F)F)[nH]4)c3)ccc21 [CHIR265] (first compound 2 µM, partner dose 0.08 µM) | 94.2% | 68.6% | 71.4% | 78.7% | 74% | 94.6% | 53% | 52.3% |  |  |
| O=C(Nc1cc(C(F)(F)F)cc(C(F)(F)F)c1)c1cc(Cl)ccc1O + O=C(O)[C@@H]1[O][Sb](=[O])([O][Sb]2(=[O])[O][C@H]([C@H](O)CO)[C@H](O)[C@H](C(=O)O)[O]2)[O][C@H]([C@H](O)CO)[C@@H]1O [stibogluconate] (first compound 0.016 µM, partner dose 2 µM) | 93.5% | 96.2% | 94.9% | 126% | 91% | 118% | 88.8% | 115% |  |  |
| O=C(O)[C@@H]1[O][Sb](=[O])([O][Sb]2(=[O])[O][C@H]([C@H](O)CO)[C@H](O)[C@H](C(=O)O)[O]2)[O][C@H]([C@H](O)CO)[C@@H]1O (stereo partly specified) [stibogluconate] + C=C(c1ccc(C(=O)O)cc1)c1cc2c(cc1C)C(C)(C)CCC2(C)C [Bexarotene] (first compound 2 µM, partner dose 2 µM) | 91.1% | 96.1% | 78.8% | 106% | 77.1% | 92.9% | 75.4% | 81.5% |  |  |
| O=C(Nc1cc(C(F)(F)F)cc(C(F)(F)F)c1)c1cc(Cl)ccc1O + Clc1ccc(Nc2nnc(Cc3ccncc3)c3ccccc23)cc1 [vatalanib] (first compound 0.016 µM, partner dose 2 µM) | 94.6% | 80.9% | 92.4% | 105% | 108% | 98% | 97.7% | 94.5% |  |  |
| O=C(Nc1cc(C(F)(F)F)cc(C(F)(F)F)c1)c1cc(Cl)ccc1O + Cn1cncc1[C@@](N)(c1ccc(Cl)cc1)c1ccc2c(c1)c(-c1cccc(Cl)c1)cc(=O)n2C [tipifarnib] (first compound 0.016 µM, partner dose 0.01 µM) | 94.5% | 85.9% | 78.1% | 104% | 78.2% | 79.4% | 92.1% | 63.4% | 83.9% | 74.5% |
| O=C(O)[C@@H]1[O][Sb](=[O])([O][Sb]2(=[O])[O][C@H]([C@H](O)CO)[C@H](O)[C@H](C(=O)O)[O]2)[O][C@H]([C@H](O)CO)[C@@H]1O (stereo partly specified) [stibogluconate] + C[C@@H]1CCN(C(=O)CC#N)C[C@@H]1N(C)c1ncnc2[nH]ccc12 [CP690550] (first compound 2 µM, partner dose 1 µM) | 107% | 97% | 89.4% | 94.7% | 90.2% | 102% | 111% | 103% | 103% | 99.9% |
| O=C(Nc1cc(C(F)(F)F)cc(C(F)(F)F)c1)c1cc(Cl)ccc1O + CCCCCCCCCCCCCCCCCCOP(=O)([O-])OC1CC[N+](C)(C)CC1 [Perifosine] (first compound 0.016 µM, partner dose 0.4 µM) | 93.5% | 101% | 115% | 79.4% | 104% | 96.7% | 99.1% | 89.9% |  |  |
| O=C(O)c1ccc2c(c1)nc(Nc1cccc(Cl)c1)c1ccncc12 + O=C(CCCCCCC(=O)Nc1ccccc1)NO [vorinostat] (first compound 0.4 µM, partner dose 0.08 µM) | 103% | 86.1% | 95.3% | 108% | 109% | 84.2% | 92.8% | 101% | 100% | 117% |
